# Reference: PubChem BioAssay AID1347434 (National Center for Advancing Translational Sciences (NCATS), 2020)
# The campaign covered roughly 1,200 compounds. About 30 (2%) were called active. Inconclusive results, whose numbers are uncertain, are shown with a selection of clear calls. Calls come from the whole dose curve; as a rule, active = well fitted inhibition curve with a large enough effect; inconclusive = small, poorly fitted or top-dose-only effect; inactive = flat fitted curve, though single readings scatter. Potencies beside an inconclusive call are fits to weak or partial responses and may not hold up.
# Biological target: Single-stranded DNA cytosine deaminase (Homo sapiens) (UniProt Q9GZX7)
# Sequence of UniProt Q9GZX7 (Q9GZX7 whole entry, looked up): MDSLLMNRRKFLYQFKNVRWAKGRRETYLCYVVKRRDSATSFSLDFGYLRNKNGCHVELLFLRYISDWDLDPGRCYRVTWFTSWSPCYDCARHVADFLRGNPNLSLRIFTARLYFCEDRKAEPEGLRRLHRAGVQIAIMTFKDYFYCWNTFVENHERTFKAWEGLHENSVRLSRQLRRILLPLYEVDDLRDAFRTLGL
# Test: Confirmatory qHTS assay for inhibitors of Activation Induced Cytidine Deaminase (AID): AID signals
# Conditions: recombinant AID, FRET deamination/UDG coupled fluorescence, 4 h; series mostly up to 115 µM; activity, negative = inhibition: at the top concentration
# Text: Assay Provider (PI) Patricia Gearhart Ph.D. National Institute on Aging National Institute of Health (NIH), Bethesda, MD Assay Provider (PI) Rahul Kohli Ph.D. Perelman School of Medicine University of Pennsylvania, Philadelphia, PA Activation-Induced Deaminase (AID) is a cytosine deaminase which converts cytosine into uracil within stretches of ssDNA. The presence of uracil in DNA initiates a cascade of mutagenic DNA repair to introduce point mutations and DNA double strand breaks. Specific targeting of AID to the immunoglobulin heavy chain loci (Igh) promotes mutagenesis in the antibody variable region for somatic hypermutation (SHM) or switch regions leading to class switch recombination (CSR). However, AID also plays a role in accumulating unnecessary mutations across the genome. Mis-targeting of AID results in the initiation of tumor development and leads to greater drug resistance among cancer cells when continually expressed. To identify an AID inhibitor, a small molecule library will be screened in collaboration with NCATS core facility at NIH. To confirm biological function, inhibitors will be examined in an in vitro murine B-cell activation assay and subsequent secondary validation screens. Top molecules will be further screened to identify inhibitory efficacy against a wild type primary splenocytes assay. Using these approaches, we hope to identify a small molecule with great efficacy and low toxicity for use as a molecular probe to further characterize AID's intricacies, or even as a therapeutic. A FRET based analysis of cytosine deamination, was developed to identify potential inhibitors of AID catalytic activity. This screen has two signal output, Read 1 evaluates the AID inhibition response. The second readout (Read 2) evaluates UDG response and is uses as a counterscreen to exclude false positive inhibitors. Inhibition in AID and inactivity in the UDG signal is the desired outcome for this assay.
# PROTOCOL TABLE SEQUENCE No. (e.g., 1, 2, 3, etc.); […] (e.g., Cells, Incubation, Reagent, etc.); VALUE; DESCRIPTION 1a; Reagent; 3 uL; [4/3x] 1 uM AID/2.67 U/mL UDG 1b; Reagent; 3 uL; 2 U/mL UDG 1c; Reagent; 3 uL; 1 uM AID 2a; Compound; 46 nL; Follow-up plates (0.64 uM - 10 mM) 2b; Control; 46 nL; ATA (16.4 nM - 10 mM) 3; Time; 10 min; incubation at room temperature 4; Reagents; 1 uL; [4x] 250 nM DJC20 / 250 nM DJC23 [Substrate] 5; Time; 4 hr; incubation at room temperature 6; Reagent; 4 uL; [2x] 250 mM NaOH 7; Time; 15 sec; centrifuge at 1000 rpm 8; Time; 30 min; incubation at room temperature 9a; Detection; fluorescence (Read 1: AID); EnVision (PerkinElmer) plate reader, 540 excitation and 590 emission filters 9b; Detection; fluorescence (Read 2: UDG); EnVision (PerkinElmer) plate reader, 560 excitation and 665 emission filters NOTES (numbers refer to sequence above) 1a; Reagents were dispensed in a medium-binding black solid-bottom Greiner plates (789176F) using a BioRptr liquid dispenser. Dispense 3 uL of [4/3x] 1 uM AID (provided by Kohli lab) and [4/3x] 2 U/mL UDG (NEB M0280L) into columns 1, 2, 5 to 48. 1b; Dispense 3 uL of [4/3x] 2 U/mL UDG into column 3. 1c; Dispense 3 uL of [4/3x] 1 uM AID into column 4. 2a; Compound ([…] [uM]: 0.64; 3.2; 16; 80; 400; 2,000; 10,000; 20,000) double pin-transferred (Dip Factor = 2) using the Kalypsys (Wako USA) pintool equipped with a 1536 pinhead for a final concentration range of 7.32 nM - 114 uM. 2b; 10 mM Aurintricarboxylic Acid (Sigma A1895) (ATA, 8-point, n = 2, 1:2.5 dilution in column 2) double pin-transferred (Dip Factor = 2) using the Kalypsys (Wako USA) pintool equipped with a 1536 pinhead for a [final] range of 186 nM - 114 uM. 3; Room temperature incubation. 4; Dispense 1 uL of substrate mixture from the Kohli lab [4x] […] DJC20 and [4x] 250 nM DJC23 into columns 1 to 48 . 5; Room temperature incubation. 6; Dispense 4 uL of […] [2x] 250 mM NaOH into columns 1 to 48. 7; Centrifugation step to remove bubbles. […]
# % is set by controls: 0 for no effect and ±100 for the full control effect; potency is the fitted concentration of half-maximal effect; tags give direction and shape of the fitted curve.
Structure (SMILES),Potency,"activity, negative = inhibition"
CCOC(=O)c1c(C)oc2nc(C)nc(N(CC(C)C)CC(C)C)c12,"inconclusive: 28.2 µM [inhibitor, partial curve, poor fit]",–
Cc1ccc(C)c(Cn2c(=O)n(CC3CCC(C(=O)N4CCOCC4)CC3)c(=O)c3sccc32)c1 (stereo not drawn),–,inactive: -4.69%
Cc1ccccc1Cn1nnc2c(=O)[nH]c(C3CCCN(C(=O)c4ccc(C(C)(C)C)cc4)C3)nc21 (stereo not drawn),"inconclusive: 31.6 µM [inhibitor, single point]",–
CCCN(CCC)CCCNC(=O)c1cc2c(=O)n(C)c3ccccc3c2s1,"inconclusive: 31.6 µM [inhibitor, single point]",–
CC(C)(C)OC(=O)N1CCC(c2c(C(=O)NCCN3CCC(Cc4ccccc4)CC3)cnn2-c2cccc(Cl)c2)CC1,"inconclusive: 39.8 µM [inhibitor, single point]",–
COc1ccc(C2C=C(c3ccccc3)Nc3nc(NS(=O)(=O)c4ccccc4)nn32)cc1 (stereo not drawn),–,inactive: -23.7%
COc1cccc(-c2cc(C(F)(F)F)nc(NCCc3ccc(OC)c(OC)c3)n2)c1,"inconclusive: 31.6 µM [inhibitor, partial curve]",–
COc1cccc(Cn2cc(C(=O)c3ccc(Cl)cc3)c(=O)c3ccccc32)c1,"inconclusive: 14.1 µM [inhibitor, partial curve, poor fit]",–
Cc1ccc(-c2cn3c(n2)sc2cc(C(=O)NCCCN4CCCCCC4)ccc23)cc1,"inconclusive: 28.2 µM [inhibitor, partial curve]",–
O=C(Nc1cc(-c2ccccc2)sc1C(=O)O)c1cccc(F)c1,"inconclusive: 31.6 µM [inhibitor, single point]",–
COc1ccc(-c2nc3c(c(SCC(=O)Nc4cccc(O)c4)n2)Cc2c(CO)cnc(C)c2O3)cc1,"inconclusive: 17.8 µM [inhibitor, partial curve]",–
Cc1cc(OCCCSc2nc(-c3ccc(C(C)(C)C)cc3)nc3cc(=O)[nH]n23)ccc1Cl,active: 31.6 µM,–
O=C(Nc1cccc(C(=O)Nc2ccc(S(=O)(=O)O)c3cc(S(=O)(=O)O)cc(S(=O)(=O)O)c23)c1)Nc1cccc(C(=O)Nc2ccc(S(=O)(=O)O)c3cc(S(=O)(=O)O)cc(S(=O)(=O)O)c23)c1,"inconclusive: 31.6 µM [inhibitor, single point]",–
CC(C)(C)c1ccc(-c2nc(SCCCOc3ccccc3)n3[nH]c(=O)cc3n2)cc1,"inconclusive: 35.5 µM [inhibitor, single point]",–
CC1CCCN(CCCNC(=O)c2ccc3c(c2)N(Cc2ccccc2F)C(=O)c2ccccc2S3(=O)=O)C1 (stereo not drawn),"inconclusive: 31.6 µM [inhibitor, partial curve, poor fit]",–
COc1ccccc1C(=O)Nc1nnc(SCc2cc(=O)c3ccccc3[nH]2)s1,"inconclusive: 35.5 µM [inhibitor, single point]",–
c1cnc(N2CCN(c3ncc4c(n3)CCNC4)CC2)nc1,"inconclusive: 31.6 µM [inhibitor, single point]",–
CN(C(=O)c1ccc2c(Cl)c3c(nc2c1)CCC3)c1ccccc1F,"inconclusive: 35.5 µM [inhibitor, partial curve, poor fit]",–
COc1ccc(CCN2CCC(CNC(=O)c3cnn(-c4cccc(Cl)c4)c3C3CCN(C(=O)OC(C)(C)C)CC3)CC2)cc1,active: 31.6 µM,–
Cc1ccc(C)c(N2CCN(C(=O)c3cc4ccc5cccnc5c4[nH]3)CC2)c1,"inconclusive: 28.2 µM [inhibitor, partial curve, poor fit]",–

Structure (SMILES),Potency,"activity, negative = inhibition"
CCOC(=O)c1ccccc1NC(=O)N(Cc1ccc(CC)cc1)Cc1cn[nH]c1-c1ccc(OC)cc1,"inconclusive: 15.8 µM [inhibitor, partial curve, poor fit]",–
Cc1nc2nc(NC(=O)c3ccc(C(C)(C)C)cc3)[nH]n2c(=O)c1Cl,"inconclusive: 31.6 µM [inhibitor, single point]",–
COc1cccc(Cn2c(=O)n(CC3CCC(C(=O)N4CCCCC4)CC3)c(=O)c3sccc32)c1 (stereo not drawn),"inconclusive: 35.5 µM [inhibitor, partial curve, poor fit]",–
Cc1ccn2c(Nc3ccccc3C)c(-c3ccccn3)nc2c1,"inconclusive: 31.6 µM [inhibitor, partial curve, poor fit]",–
Cc1ccc(C2C=C(c3ccc(Cl)cc3)Nc3nc(NS(=O)(=O)c4ccccc4)nn32)cc1 (stereo not drawn),"inconclusive: 35.5 µM [inhibitor, partial curve]",–
C=CCc1ccccc1OCCSc1nc(-c2ccc(C(C)(C)C)cc2)nc2cc(=O)[nH]n12,–,inactive: -11.2%
C=Cc1ccc(CSc2nc(-c3ccc(OC)cc3)nc3c2Cc2c(CO)cnc(C)c2O3)cc1,–,inactive: -8.87%
COc1ccc(-c2coc3c2c(C)cc2oc(=O)c(CC(=O)O)c(C)c23)cc1,active: 50.1 µM,–
CCCn1c(SCc2nc(-c3ccccc3C)no2)nnc1-c1ccc(Cl)cc1,"inconclusive: 39.8 µM [inhibitor, partial curve, poor fit]",–
CCOC(=O)c1cc(-c2ccc(OC)cc2)n(CCC(=O)Nc2nc3ccc(OCC)cc3s2)c1C,"inconclusive: 39.8 µM [inhibitor, partial curve, poor fit]",–
CC(CNC(=O)c1sc2ncccc2c1-n1cccc1)c1ccccc1 (stereo not drawn),"inconclusive: 25.1 µM [inhibitor, partial curve, poor fit]",–
COc1cc2c(=O)c(C(=O)c3ccc(C)c(C)c3)cn(Cc3ccccc3)c2cc1OC,"inconclusive: 25.1 µM [inhibitor, partial curve, poor fit]",–
N#C/C(=C\c1ccc(-c2ccccc2C(=O)O)o1)c1nc2ccccc2[nH]1,–,inactive: 33.8%
Cc1cc(-c2ccc(C)c(S(=O)(=O)N3CCCC(C)C3)c2)on1 (stereo not drawn),–,inactive: -12.9%
CCC(C)n1c(=N)c(C(=O)NCc2ccccc2)cc2c(=O)n3cc(C)ccc3nc21 (stereo not drawn),"inconclusive: 39.8 µM [inhibitor, partial curve, poor fit]",–
Cc1cccc(Cn2nnc3c(=O)[nH]c(C4CCCN(C(=O)c5ccc(C(C)(C)C)cc5)C4)nc32)c1 (stereo not drawn),"inconclusive: 31.6 µM [inhibitor, single point]",–
CCCCN(C)C(=O)c1ccc2c(c1)N(Cc1cccc(Cl)c1)C(=O)c1ccccc1S2=O (stereo not drawn),"inconclusive: 39.8 µM [inhibitor, single point]",–
Cc1nnc(SCC(=O)NCc2ccccc2F)c2nn(-c3ccc(Cl)cc3)c(C)c12,"inconclusive: 35.5 µM [inhibitor, partial curve]",–
Cc1ccc(Cl)cc1N1CCN(C(=O)Cn2cnc3nc4c(cc3c2=O)CCCC4)CC1,"inconclusive: 31.6 µM [inhibitor, single point]",–
O=C(CCn1c(=O)c2cccn2c2cccnc21)N1CCN(c2cccc(Cl)c2)CC1,"inconclusive: 44.7 µM [inhibitor, partial curve, poor fit]",–

Structure (SMILES),Potency,"activity, negative = inhibition"
COc1ccccc1CNC(=O)c1cnn2c(C)c(Cc3ccc(F)cc3)c(C)nc12,–,inactive: -10.8%
Cc1ccc(S(=O)(=O)C(CNC(=O)COc2ccccc2)c2cccs2)cc1 (stereo not drawn),"inconclusive: 44.7 µM [inhibitor, partial curve]",–
CCc1ccc(-n2c(SCc3nc(-c4cc(OC)ccc4OC)no3)nnc2-c2ccccc2)cc1,–,inactive: -19%
Cc1ccccc1C(=O)Nc1sc2c(c1C(=O)O)CCC(C(C)(C)C)C2 (stereo not drawn),–,inactive: -5.24%
COC(=O)c1cc(Cl)ccc1NC(=O)CSc1ncc(S(=O)(=O)c2ccc(Br)cc2)c(=O)[nH]1,–,inactive: -7.72%
CCOC(=O)C1=C(CN2CCN(c3cc(C)ccc3C)CC2)NC(=O)NC1c1ccccc1 (stereo not drawn),–,inactive: -4.99%
COc1cc(NC(=O)CCc2c(C)nc3c4c(C)cc(C)nc4nn3c2C)cc(OC)c1,"inconclusive: 22.4 µM [inhibitor, partial curve, poor fit]",–
COc1ccc(N(C)C(=O)c2cc3c(s2)-c2ccccc2OC3)cc1,"inconclusive: 39.8 µM [inhibitor, single point]",–
O=C(c1ccc(Cl)cc1)c1cn(Cc2ccccc2)c2cc3c(cc2c1=O)OCCO3,"inconclusive: 5.62 µM [inhibitor, partial curve, poor fit]",–
Nc1ccc2oc(Cc3ccc(Cl)cc3)nc2c1,–,inactive: 24.6%
Oc1ccc(NCc2ccccc2OCc2ccc(Cl)cc2)cc1,"inconclusive: 15.8 µM [inhibitor, full curve, poor fit]",–
CC(C)c1ccc(S(=O)(=O)c2cnc(SCC(=O)Nc3ccc4c(c3)OCCO4)[nH]c2=O)cc1,"inconclusive: 39.8 µM [inhibitor, partial curve, poor fit]",–
Cc1ccc2oc(=O)n(CCCOc3ccccc3Cl)c2c1,"inconclusive: 39.8 µM [inhibitor, partial curve, poor fit]",–
COc1cccc(NC(=O)Cn2cc(C(=O)c3ccc(C)cc3)c(=O)c3cc(OC)ccc32)c1,"inconclusive: 31.6 µM [inhibitor, single point]",–
CCOc1ccccc1NC(=O)CSc1ncc(S(=O)(=O)c2ccc(C(C)(C)C)cc2)c(=O)[nH]1,"inconclusive: 31.6 µM [inhibitor, single point]",–
CC(C)(C)c1ccc(-c2nc(SCCOc3ccc(Cl)cc3)n3[nH]c(=O)cc3n2)cc1,"inconclusive: 35.5 µM [inhibitor, single point]",–
COc1ccc(CCN2CCC(CNC(=O)c3cnn(-c4ccc(C)cc4)c3C3CCN(C(=O)OC(C)(C)C)CC3)CC2)cc1,"inconclusive: 28.2 µM [inhibitor, partial curve]",–
CCN(CC)CCOC(=O)c1ccc(NC(=O)Cn2ncc3c([nH]c4ccc(C)cc43)c2=O)cc1,"inconclusive: 35.5 µM [inhibitor, partial curve]",–
